About 220 (0.56%) of roughly 39,000 compounds showed activity. Some of the results follow.
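Note: static incubation at 37 °C against the wild-type strain, values averaged over two biological replicates.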

The subject of the experiment is Escherichia coli K-12 BW25113. The experiment is described as follows: relative growth (OD600 normalised to plate interquartile mean) (fraction); higher = less growth inhibition, active = 0.2 or less. Conditions: 50 µM; LB; incubation time: overnight (16-24 h).
For `C[C@H]1CN([C@@H](C)CO)C(=O)Cc2cc(NC(=O)Nc3cccc(C(F)(F)F)c3)ccc2O[C@H]1CN(C)S(=O)(=O)c1ccc(Oc2ccccc2)cc1`, the relative growth was inactive: 1.03. The figure for `c1ccc2c(c1)ccc1cc3c(ccc4ccccc43)cc12` is inactive: 1.02; for `C[C@@H]1CCCCO[C@H](CN(C)C(=O)NC2CCCCC2)[C@@H](C)CN([C@H](C)CO)C(=O)c2cc(NC(=O)c3ccncc3)ccc2O1` it is inactive: 1.01; for `COc1ccccc1S(=O)(=O)N[C@H]1CC[C@@H](CCNC(=O)C2CCOCC2)O[C@H]1CO` it is inactive: 0.999. For `CC(C)NC(=O)Nc1cccc2c1O[C@H](CN(C)Cc1ccc(Oc3ccccc3)cc1)[C@H](C)CN([C@H](C)CO)C2=O` the value was inactive: 0.993.

For `Cc1cc(C(=O)Nc2cccc3c2O[C@@H](CN(C)Cc2ccncc2)[C@@H](C)CN([C@@H](C)CO)C3=O)n(C)n1`, the relative growth was inactive: 1.01. For `Cc1cc(=O)nc(C)[nH]1` the value was inactive: 1; for `COc1ccc2c3c([nH]c2c1)[C@@H](CO)N(C[C@]13CCN(CC1)CC1CCCCC1)C(=O)Nc1c(noc1C)C`, inactive: 0.993; for `Cn1cnc(S(=O)(=O)N[C@@H]2C=C[C@H](CC(=O)NCC3CC3)O[C@H]2CO)c1`, inactive: 0.996. For `COc1cccc(NC(=O)N[C@@H]2CC[C@H](CC(=O)N3CCOCC3)O[C@H]2CO)c1` the value was inactive: 0.972; for `CCn1c2c(ccc1=O)C[C@H](N)CC2`, inactive: 1.03. For `C[C@H](CO)N1C[C@H](C)[C@@H](CN(C)C(=O)NC2CCCCC2)Oc2c(NS(=O)(=O)c3cn(C)cn3)cccc2C1=O`, the relative growth is inactive: 0.991. Consider `C[C@@H]1CN([C@@H](C)CO)C(=O)c2cc(NC(=O)Nc3cccc4ccccc34)ccc2O[C@@H]1CN(C)C(=O)Nc1ccc2c(c1)OCO2`, for which the relative growth is inactive: 1.03. For `Nc1nnc(N)c2ccccc12` the value was inactive: 1.04; for `C[C@H]1CN([C@@H](C)CO)C(=O)c2c(c3ccccc3n2C)-c2ccccc2CO[C@@H]1CN(C)C(=O)Nc1ccccc1`, inactive: 0.99; for `CC/C=C\C/C=C\C/C=C\CCCCCCCCCC(=O)O`, inactive: 0.969. For `C[C@@H]1CN([C@H](C)CO)C(=O)c2cc(NC(=O)Nc3ccc4c(c3)OCO4)ccc2O[C@H]1CN(C)S(C)(=O)=O` the value was inactive: 0.991. The figure for `CC(C)NCC(O)COc1cccc2ccccc12.Cl` (stereo not given) is inactive: 1.01; for `C[C@@H]1CN([C@H](C)CO)S(=O)(=O)c2ccc(C#CCN(C)C)cc2O[C@@H]1CN(C)Cc1ccncc1` it is inactive: 0.996.

On to `CN(C)CCCNC(=O)C[C@@H]1CC[C@@H](NS(=O)(=O)c2ccccc2)[C@@H](CO)O1`, for which the relative growth was inactive: 0.996. The figure for `O=C(CCc1ccc(O)cc1)c1c(O)cc(O)cc1OC1OC(CO)C(O)C(O)C1O` (stereo not given) is inactive: 1.1; for `C[C@@H]1CCCCO[C@@H](CN(C)Cc2ccncc2)[C@@H](C)CN([C@H](C)CO)C(=O)c2cc(NC(=O)Nc3ccccc3)ccc2O1` it is inactive: 0.986; for `C[C@H](CO)N1C[C@H](C)[C@H](CN(C)S(=O)(=O)c2cn(C)cn2)Oc2ccc(NS(=O)(=O)c3cn(C)cn3)cc2C1=O` it is inactive: 1.02.

With `Cc1ccc(S(=O)(=O)N(C)C[C@H]2Oc3c(NC(=O)Nc4cccc5ccccc45)cccc3C(=O)N([C@H](C)CO)C[C@@H]2C)cc1`, the relative growth was inactive: 1.03.

Regarding `Cc1noc(C)c1NC(=O)N(C)C[C@H]1Oc2c(NC(=O)c3cnccn3)cccc2C(=O)N([C@@H](C)CO)C[C@H]1C`, the relative growth was inactive: 0.987. The figure for `C[C@@H]1CN([C@@H](C)CO)C(=O)c2cccc(NC(=O)c3cnccn3)c2O[C@H]1CN(C)C(=O)Nc1ccccc1` is inactive: 0.99. For `Cc1ccc(S(=O)(=O)Nc2cccc3c2O[C@@H](CN(C)Cc2ccc(Oc4ccccc4)cc2)[C@@H](C)CN([C@@H](C)CO)C3=O)cc1` the value was inactive: 1.01; for `CCCCCOc1ccc(-c2cc(-c3ccc(C(=O)N[C@H]4C[C@@H](O)[C@@H](O)NC(=O)[C@H]5[C@@H](O)[C@@H](C)CN5C(=O)[C@H]([C@@H](O)CC(N)=O)NC(=O)[C@H]([C@@H](O)[C@@H](O)c5ccc(O)c(OS(=O)(=O)O)c5)NC(=O)[C@H]5C[C@@H](O)CN5C(=O)[C@H]([C@@H](C)O)NC4=O)cc3)no2)cc1`, inactive: 0.952. For `CCCCc1oc2ccc(NS(C)(=O)=O)cc2c1C(=O)c1ccc(OCCCN(CCCC)CCCC)cc1.Cl`, the relative growth was inactive: 1.13. For `C[C@H](CO)N1C[C@H](C)[C@H](CN(C)Cc2ccc(C(F)(F)F)cc2)OCCCC[C@H](C)Oc2ccc(NC(=O)CCC(F)(F)F)cc2C1=O` the value was inactive: 0.94; for `C[C@H](CO)N1C[C@H](C)[C@@H](CN(C)C(=O)Nc2ccc(C(F)(F)F)cc2)Oc2ccc(NC(=O)Nc3cccc4ccccc34)cc2CC1=O`, inactive: 1.02.

For the compound `Clc1ccc(-c2cccs2)nn1`, the relative growth is inactive: 0.961. Consider `C[C@@H]1CCCCO[C@H](CN(C)C(=O)c2ccncc2)[C@H](C)CN([C@H](C)CO)C(=O)c2cc(NS(=O)(=O)c3ccc(Cl)cc3)ccc2O1`, for which the relative growth is inactive: 0.984. For `CC(=O)c1cncnc1` the value was inactive: 0.991; for `Cc1noc(C)c1NC(=O)N(C)C[C@H]1Oc2ccc(NC(=O)C3CC3)cc2C(=O)N([C@@H](C)CO)C[C@@H]1C`, inactive: 1.01.

Regarding `Cc1noc(C)c1NC(=O)N(C)C[C@@H]1Oc2c(NC(=O)c3cnccn3)cccc2C(=O)N([C@@H](C)CO)C[C@@H]1C`, the relative growth is inactive: 1.03. `O=C(O)[C@@H]1C2C=CC3(O2)C1C(=O)N1CCS(=O)[C@H]13` (stereo not given in full): the relative growth was inactive: 0.985.

As to `C[C@H]1CN([C@@H](C)CO)C(=O)Cc2cc(NC(=O)C3CCCCC3)ccc2O[C@H]1CN(C)Cc1ccc(C(=O)Nc2ccccc2N)cc1`, the relative growth was inactive: 1.03. For `C[C@@H]1CCCCO[C@@H](CN(C)Cc2ccccc2)[C@@H](C)CN([C@H](C)CO)C(=O)c2cc(NC(=O)NC3CCCCC3)ccc2O1` the value was inactive: 1.02; for `COc1cccc(S(=O)(=O)N(C)C[C@H]2Oc3ncc(C#CCN(C)C)cc3C(=O)N([C@@H](C)CO)C[C@@H]2C)c1`, inactive: 0.995.

For the origin of these results see the supplement of paper PMC9446081.
